Test results from PubChem BioAssay AID485344 (National Center for Advancing Translational Sciences (NCATS), 2010).
The campaign covered roughly 340,000 compounds. About 6,900 (2%) were called active. No stated cut-off is given here; in the data, active means inhibition above about 30%; inactive means below that, where a call was filed. Only a part is listed here, and it is no random draw. The source gives no active or inactive call for entries shown without one.

Molecular target: D(2) dopamine receptor (Homo sapiens) (UniProt P14416)
Assay: HTS Assay for Allosteric Antagonists of the Human D2 Dopamine Receptor: Primary Screen for Antagonists; further: 0% is about no effect
Details: HEK293 TREx D2 cells, calcium flux, dopamine EC80; at 10 µM; stronger effect = higher value
In short: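 In this primary screen, negative modulation is detected by tracking calcium flux after an EC80 dopamine challenge in inducible HEK293 T-REx D2 cells preexposed to test compound for 180 s.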

Sequence of UniProt P14416 (P14416 whole entry, looked up): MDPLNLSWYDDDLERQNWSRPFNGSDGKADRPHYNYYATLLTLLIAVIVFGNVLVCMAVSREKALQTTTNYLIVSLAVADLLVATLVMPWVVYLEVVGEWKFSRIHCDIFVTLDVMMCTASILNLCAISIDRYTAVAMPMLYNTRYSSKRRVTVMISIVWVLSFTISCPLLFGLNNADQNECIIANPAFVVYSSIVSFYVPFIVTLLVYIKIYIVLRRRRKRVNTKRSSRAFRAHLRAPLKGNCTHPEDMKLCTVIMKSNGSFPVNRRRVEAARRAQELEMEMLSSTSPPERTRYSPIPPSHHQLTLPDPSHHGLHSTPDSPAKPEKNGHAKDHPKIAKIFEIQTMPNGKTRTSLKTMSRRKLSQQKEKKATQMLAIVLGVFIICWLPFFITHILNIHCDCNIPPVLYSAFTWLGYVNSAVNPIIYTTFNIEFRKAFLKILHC

SMILES	inhibition
Cc1ccc2occ(-c3cc(-c4ccc(Cl)cc4)nc4c3COc3ccccc3-4)c(=O)c2c1	10.4%
CCCCc1nn2c(=O)cc(COC(=O)c3ccc(NC(=O)C4CCCCC4)cc3)nc2s1	-3.04%
Cc1ccc(Cn2c(=O)n(Cc3ccccc3Cl)c(=O)c3ccccc32)cc1	-3.65%
CCOCCc1nn2c(=O)cc(COC(=O)C(CC)c3ccccc3)nc2s1 (stereo not drawn)	2%
Cc1ccc([N+](=O)[O-])c(OCCN2CCc3ccccc3C2)c1	active: 88%
Cc1nnc(N2CCN(c3ccccc3F)CC2)c2c1nnn2Cc1ccccc1	-0.127%
COc1ccc(NC(=O)CCn2cccn2)cc1OC	8.71%
CCOC(=O)Cn1c(=O)n(-c2ccccc2OC)c2nc(-c3ccccc3C)nc(C(N)=O)c21	8.83%
O=C(COc1ccccc1)Nc1ccccc1C(=O)OCc1cc(=O)n2nc(C3CC3)sc2n1	3.36%
COC(=O)CC1Oc2ccccc2-n2cc(-c3ccc(Cl)cc3)nc21 (stereo not drawn)	1.66%
Cc1ccccc1C(=O)Nc1nnc(S(=O)(=O)N2CCCCCC2)s1	0.598%
Cc1ccc(Cl)cc1N1CCN(C(=O)C2CCN(Cc3nc(-c4cccc(Cl)c4)oc3C)CC2)CC1	-10.2%
CCc1nn2c(=O)cc(COC(=O)C(c3ccccc3)c3ccccc3)nc2s1	-16.2%
Cc1cccc(-c2nc(SCC(=O)Nc3ccc4c(c3)OCCO4)c(-c3ccccc3)[nH]2)c1	22.1%
COc1ccc(-n2nc(C(=O)NCCc3cccc(C)c3)c3c4ccccc4n(C)c3c2=O)cc1Cl	-20%
CCOC(=O)c1ccc(Nc2cc(-c3ccccc3)nc(C)n2)cc1	-4.38%
Cc1cc(C)cc(N(CC(=O)NCc2ccccc2Cl)S(=O)(=O)c2c(C)noc2C)c1	10.3%
Cn1c(CCNC(=O)c2ccco2)nc2cc(NC(=O)COc3ccc(Cl)cc3)ccc21	6.91%
O=C(CSc1nc(=O)[nH]c2c1CCC2)NCc1ccccc1	8.33%
O=C(NCc1ccccc1CN1CCCC1)c1cc2cc(Cl)ccc2o1	active: 39.9%
CCOC(=O)N1CCC(NC(=O)C2CCN(S(=O)(=O)c3cccc4cccnc34)CC2)CC1	active: 51.2%
Cc1ccc(C(=O)COC(=O)CCC(=O)Nc2ccc(Oc3ccccc3)cc2)cc1C	-6.65%
Oc1c(C(c2ccccc2)N2CCN(c3ccccc3)CC2)sc2nc(-c3ccco3)nn12 (stereo not drawn)	-24.4%
O=C(NCCc1ccccc1)C(=O)Nc1cccc(Br)c1	0.585%

SMILES	inhibition
Cc1cccc(NC(=O)CSc2cc(C)c3ccccc3n2)c1	21.8%
COc1ccc(N2CCN(C(=O)Nc3cccc(C(F)(F)F)c3)CC2)cc1	-0.0737%
CCc1ccccc1NC(=O)Cc1c(C(=O)O)[nH]c2ccc(Cl)cc12	8.12%
Cc1ccc(Cn2c(CNC(=O)c3ccccc3Br)nc3cccnc32)cc1	17.3%
CC(C)CNC(=O)C1=CC(c2ccc3c(c2)OCO3)=NS(=O)(=O)N1C	-10.3%
Cc1ccc(-n2c(=O)c3oc4ccccc4c3n(CC(=O)Nc3ccccc3)c2=O)cc1C	3.49%
CCc1ccc(C2c3c(oc4ccc(C)cc4c3=O)C(=O)N2c2nc(C)c(C)s2)cc1 (stereo not drawn)	4.48%
COc1ccc(-c2cc(C(F)(F)F)nc(SCCC(=O)Nc3c(C)cccc3C)n2)cc1	-0.564%
COc1cccc(-c2ccc3c(N)c(C(=O)Nc4ccc(C)c(F)c4)sc3n2)c1	-3.14%
COc1cc(NC(=O)Cn2cc(S(=O)(=O)c3ccccc3)c(=O)c3ccccc32)cc(OC)c1	-1.22%
CNC(=O)COc1ccc(Nc2nnc(-c3ccc(C)c(S(=O)(=O)NC(C)(C)C)c3)c3ccccc23)cc1	9.76%
COc1ccc(-c2onc(C)c2C)cc1S(=O)(=O)NC1CCC(C)CC1 (stereo not drawn)	-3.82%
Cc1ccc(OCC(=O)Nc2ccc(C(=O)OCc3cc(=O)n4c(C)csc4n3)cc2)cc1	10.1%
O=C(Nc1ccc(F)cc1F)c1ccc(-n2cnnc2)cc1	24.9%
O=C(NCC12CC3CC(CC(C3)C1)C2)c1cc2nc(-c3ccc(F)cc3)cc(C(F)(F)F)n2n1	-4.58%
COc1ccccc1N1CCN(C(CNC(=O)C(=O)NCCc2ccccc2)c2cccnc2)CC1 (stereo not drawn)	10.2%
O=C(NCCc1ccccc1)c1cc(Sc2ccc(F)cc2F)nc2ccccc12	3.88%
COc1cccc(OCc2nc3ccccc3n2CCOc2cccc(C)c2)c1	-2.07%
CCC(C(=O)Nc1ccc(C(C)=O)cc1)n1c(C)c2cnn(-c3ccccc3)c(=O)c2c1C (stereo not drawn)	9.1%
Cn1c(=O)c2c(nc(SCC(=O)Nc3ccc(F)cc3)n2Cc2ccccc2)n(C)c1=O	-1.66%
COc1ccc(NS(=O)(=O)c2ccc3[nH]c4c(c3c2)CCCCCC4)cc1	-8.72%
Fc1ccc(CNc2nc(-c3ccccc3)cc(C(F)(F)F)n2)cc1	-1.39%
Cn1ccnc1SCC(=O)Nc1cc(Cl)ccc1Cl	-16.7%
CCN(CC)c1ccc(C2C(C(N)=O)=C(C)Nc3ncnn32)cc1 (stereo not drawn)	-12.8%
